Measurements: ChEMBL document CHEMBL1157539, “Thousands of chemical starting points for antimalarial lead identification” (Nature, 2010)
Where “and” joins values, the source holds several entries; their conditions need not be identical. Equal values may be shown once. Over roughly 13,000 compounds, “IFI” has its median near 4; the highest 2% begin near 17. The list shows a part of the results.

Assay: GSK_TCMDC: Inhibition Frequency Index (IFI). The number of non-kinase HTS assays where a compound showed > 50 % inhibition, expressed as a percentage of the number of such assays in which the compound was tested (-0 is zero)
Format: functional

Question: Which IFI does the source give for `Cc1cccc(C)c1C1CCN(CCCCNC(=O)c2cc3ccccc3[nH]2)CC1` here?
Answer: The IFI was 9.23%.

Question: For `O=C1NC(c2ccccc2)C2(CCN(CC(O)COc3cccc4ncccc34)CC2)O1` (centres undefined), which IFI is on record?
Answer: Its IFI is -0%.

Question: Which IFI does the source give for `O=C(NCCN1CCC(NC(=O)c2ccc(-c3ccccn3)s2)CC1)c1cccc(C(F)(F)F)c1` here?
Answer: Its IFI is 0.69%.

Question: For `COc1ccccc1NC(=O)Nc1cccc(-c2cccc(-c3nc4cccc(C)c4[nH]3)c2)c1`, which IFI is on record?
Answer: Its IFI is 3.03%.

Question: For `COc1cc2c(cc1CCNCCCCNCCc1cc3c(cc1OC)CCCC3)CCCC2`, which IFI is on record?
Answer: Its IFI is 15.8%.

Question: Which IFI does the source give for `NC1CCN(Cc2ccc(-c3ccc(-c4nc5cc(F)ccc5[nH]4)s3)cc2)C1` (centres undefined) here?
Answer: Its IFI is 4.35%.

Question: For `COc1cc(NC(=O)/C=C/c2cccc3cc[nH]c23)ccc1OCCN(C(C)C)C(C)C`, which IFI is on record?
Answer: The IFI was 2.84%.

Question: For `Cc1ccc(C)c(NC(=O)NC2CCN(c3ccnc(Nc4ccc(F)cc4)n3)C2)c1` (centres undefined), which IFI is on record?
Answer: Its IFI is 1.54%.

Question: For `Fc1ccc2[nH]c(-c3cccc(-c4ccc(CNCCN5CCNCC5)cc4)c3)nc2c1`, which IFI is on record?
Answer: The IFI was 5.88%.

Question: For `Cc1noc(C)c1-c1ccc2c(Nc3ccc(C(F)(F)F)cc3)c(C(N)=O)cnc2c1`, which IFI is on record?
Answer: Its IFI is 2.44%.

Question: With `CC(C)Oc1cc2c(cc1NS(=O)(=O)c1ccc(-c3ccc(Cl)cc3)cc1)CCN(C)CC2` as the compound, how does the IFI read?
Answer: The IFI was 12.4%.

Question: For `COC(=O)c1cccc(CNCc2cccc(-c3cccc(-c4nc5cc(F)ccc5[nH]4)c3)c2)c1`, which IFI is on record?
Answer: The IFI was 5.83%.

Question: For `CCc1nonc1NC(=O)c1oc2c(C)c(C)ccc2c1C`, which IFI is on record?
Answer: Its IFI is 0.98%.

Question: With `CCCC(C)Nc1nc(C)cc(N[C@@H](Cc2ccccc2)C(=O)Nc2ccccc2)n1` (some centres undefined) as the compound, how does the IFI read?
Answer: Its IFI is 9.09%.

Question: With `CCCC(C)Nc1nc(C)cc(NCCC(=O)Nc2ccccc2)n1` (centres undefined) as the compound, how does the IFI read?
Answer: Its IFI is 4.55%.

Question: With `COc1ccc(O)cc1Cc1cnc2nc(N)nc(N)c2c1C` as the compound, how does the IFI read?
Answer: The IFI was 2.24%.

Question: With `Cc1cccc(CCCNC(=O)CN(c2cccc(C(F)(F)F)c2)S(=O)(=O)c2ccc(C(F)(F)F)cc2)c1` as the compound, how does the IFI read?
Answer: Its IFI is 4.81%.

Question: With `COc1ccc(NC(=O)Nc2ccc(-c3cccc(-c4nc5cccc(C)c5[nH]4)c3)cc2)cc1` as the compound, how does the IFI read?
Answer: The IFI was 4%.

Question: Which IFI does the source give for `N[C@@H](CCNC1CCN(c2cccc(C(F)(F)F)c2)CC1)Cc1ccc(F)c(F)c1` here?
Answer: The IFI was 6.25%.

Question: With `COc1ccc(-c2cccc(NC(=O)c3cccc(C#N)c3)c2)cc1CN(C)CCN(C)C` as the compound, how does the IFI read?
Answer: Its IFI is 0%.

Question: With `Cn1nc(-c2cccc(CNC3CCc4ccccc43)c2)c2cnc(NCCCN3CCCC3)nc21` (centres undefined) as the compound, how does the IFI read?
Answer: Its IFI is 7.69%.

Question: Which IFI does the source give for `CN(CCO)Cc1cccc(-c2ccc(NC(=O)c3cccc(C#N)c3)cc2)c1` here?
Answer: Its IFI is 1.98%.

Question: For `CS(=O)(=O)Nc1ccc(-c2cnc3[nH]cc(-c4ccc(C(=O)O)cc4)c3c2)cc1`, which IFI is on record?
Answer: Its IFI is 4.95%.

Question: With `Cc1cc(N[C@@H](CC(C)C)C(=O)NC2CCCC2)nc(NCc2ccccc2C)n1` as the compound, how does the IFI read?
Answer: The IFI was 5.13%.

Question: For `O=C(N[C@H]1CCN(Cc2ccc(OCCN3CCCC3)c3ccccc23)C1)c1ccc(Cl)c(Cl)c1`, which IFI is on record?
Answer: The IFI was 8%.

Question: Which IFI does the source give for `COc1cc(CN2CCC(N3CCc4cc(NC(=O)c5cc(C)on5)ccc43)C2)ccc1F` (centres undefined) here?
Answer: Its IFI is 0%.

Question: For `OCCNc1nc(Nc2cccc(O)c2)nc2ccccc12`, which IFI is on record?
Answer: The IFI was 1.35%.

Question: Which IFI does the source give for `Cc1cc(N(C)C2CCN(C)C2)nc(Nc2ccccc2Cl)n1` (centres undefined) here?
Answer: Its IFI is 1.19%.

Question: For `CN(C)CCCNc1ccnc2cc(Cl)ccc12`, which IFI is on record?
Answer: Its IFI is 0%.

Question: Which IFI does the source give for `CC(C)(C)c1nn(-c2ccc(Cl)cc2)c2[nH]c(=O)c(CNC3CCCC3)cc12` here?
Answer: The IFI was 2.33%.

Question: For `CN1CCN(Cc2ccc(-c3ccc4c(Nc5ccc(Oc6ccccn6)cc5)ccnc4c3)o2)CC1`, which IFI is on record?
Answer: Its IFI is 6.57%.

Question: For `O=C(CCCCCNC(=O)c1ccc(O)c(-c2ccc(Cl)c(Cl)c2)c1)NC1CCCCCC1`, which IFI is on record?
Answer: Its IFI is 0.74%.

Question: For `CC(=O)c1cc(N2CCCC2)ccc1N`, which IFI is on record?
Answer: The IFI was 3.64%.

Question: Which IFI does the source give for `Cc1cc(=O)c(-c2ccc(Oc3cccc(C(F)(F)F)c3)cc2)c(C)[nH]1` here?
Answer: Its IFI is 2.56% and 2.24%.

Question: For `CCCCCCc1cc(Oc2c(I)cc(C[C@H](N)C(=O)O)cc2I)ccc1O`, which IFI is on record?
Answer: The IFI was 8.51%.

Question: Which IFI does the source give for `O=C(Nc1cccc(-c2cc3ccccc3[nH]2)c1)C1CCN(Cc2ccccc2O)CC1` here?
Answer: The IFI was 11.9%.

Question: With `Cc1cc2c(NC(=O)NC3CCN(CCc4ccccc4Cl)CC3)cccc2cn1` as the compound, how does the IFI read?
Answer: Its IFI is 0.72%.

Question: With `O=S(=O)(c1ccc(Oc2ccccc2)cc1)N(CCC(O)(C(F)(F)F)C(F)(F)F)Cc1cccc(O)c1` as the compound, how does the IFI read?
Answer: The IFI was 4.35%.

Question: With `O=c1cc(NCCCNCc2cc3ccc(Br)cc3s2)[nH]c2ccccc12` as the compound, how does the IFI read?
Answer: Its IFI is 4.51%.

Question: For `COc1ccc(NC(=O)[C@H](Cc2ccccc2)Nc2cc(C)nc(NCCc3ccc(F)cc3)n2)cc1`, which IFI is on record?
Answer: The IFI was 13.6%.

Question: With `O=C1c2ccccc2C(=O)N1CCOc1c(Br)cc(Br)cc1CNCCCNc1cc(=O)c2ccccc2[nH]1` as the compound, how does the IFI read?
Answer: The IFI was 3.52%.

Question: Which IFI does the source give for `CN1CCN(CC(O)CNC(=O)Nc2ccc(Br)cc2)CC1` (centres undefined) here?
Answer: The IFI was -0%.

Question: With `O=C(Nc1ccccc1Cc1ccccc1)c1ccccc1[N+](=O)[O-]` as the compound, how does the IFI read?
Answer: The IFI was -0%.

Question: Which IFI does the source give for `CC(C)(C)C(C)(C)Cc1ccc(O)c(CN2CCN(c3ccccc3)CC2)c1` here?
Answer: The IFI was 1.67%.

Question: Which IFI does the source give for `COc1ccc2nc3cc(Cl)ccc3c(N)c2c1` here?
Answer: Its IFI is 14.1%.

Question: Which IFI does the source give for `O=C(c1cc(-c2ccccc2O)on1)N1CCN(C(c2ccccc2)c2ccccc2)CC1` here?
Answer: The IFI was 1.06%.

Question: With `CN1CCC(C(=O)N(Cc2ccc(-c3ccc(CNCCc4ccccc4)cn3)cc2)C2Cc3ccccc3C2)CC1` as the compound, how does the IFI read?
Answer: Its IFI is 8%.

Question: Which IFI does the source give for `CCCCCc1ccc(N2C(N)=NC(N)=NC2(C)C)cc1` here?
Answer: The IFI was 4.44%.

Question: With `COc1cccc2c(NN=Cc3cccc(Cl)c3)ccnc12` as the compound, how does the IFI read?
Answer: The IFI was 3.62%.

Question: Which IFI does the source give for `COc1cccc(Nc2c(C(N)=O)cnc3ccc(-c4ccc([S+](C)[O-])cc4)cc23)c1` (centres undefined) here?
Answer: The IFI was 4.41%.

Question: With `CC(C)N1CCC(N(Cc2ccc(-c3ccc(C(F)(F)F)cc3)cc2)C(=O)Cn2c(CCc3cccc(F)c3F)cc(=O)c3cn(C)nc32)CC1` as the compound, how does the IFI read?
Answer: The IFI was 12.8%.

Question: With `CN1CCC(N(C)C(=O)C=Cc2cn(-c3ccccc3)nc2-c2cc3ccccc3o2)CC1` as the compound, how does the IFI read?
Answer: The IFI was 5.71%.

Question: Which IFI does the source give for `CCCCNC(=O)[C@H](Cc1ccccc1)NC(=O)c1ccc(O)c(-c2ccc(Cl)c(Cl)c2)c1` here?
Answer: Its IFI is 3.68%.

Question: With `Cc1cccc(-c2nc3cc(NC(=O)c4ccc([N+](=O)[O-])o4)ccc3o2)c1` as the compound, how does the IFI read?
Answer: Its IFI is 0.71%.

Question: Which IFI does the source give for `Cc1cc(C(=O)Nc2ccc3c(c2)CCN3C2CCN(Cc3ccc(F)cc3Cl)C2)no1` (centres undefined) here?
Answer: Its IFI is 6.67%.

Question: With `Cc1cc(=O)c(-c2ccc(Oc3ccc(OC(F)(F)F)cc3)cc2)c(C)[nH]1` as the compound, how does the IFI read?
Answer: The IFI was 4.55%.

Question: With `COc1cc(-c2nc(-c3ccncc3)c(-c3ccc4c(c3)CCC4=NO)[nH]2)ccc1OCCN1CCN(C)CC1` as the compound, how does the IFI read?
Answer: The IFI was 4.14%.

Question: For `COc1cc2nc(N3CCC(CNC(=O)c4cc5ccccc5s4)CC3)nc(N)c2cc1OC`, which IFI is on record?
Answer: The IFI was 5.26%.

Question: Which IFI does the source give for `O=C(Nc1cccc(CN2CCCN(Cc3ccc4c(c3)OCO4)CC2)c1)c1ccc(Cl)c(Cl)c1` here?
Answer: The IFI was 6.71%.
